# According to article PMC12040169 (PLOS Biology, 2025):
# This is one part of the list.
# System: T1, C. trachomatis L2/434/Bu expressing GFP (CTL2-GFP)
# T1 construct: L2/434/Bu GFP intracellular growth in HeLa cells
# Parameters: species or system HeLa; C. trachomatis total inclusion area by high-content imaging, normalised to DMSO
# Conditions: total inclusion area; 28.5 h, 10 µM; inhibitor
# How it was run: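 Bulk GFP and resorufin signals were read first. Wells were then fixed, stained with Hoechst and imaged to detect GFP inclusions and host nuclei. MICs followed the previously described calculation.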
row,SMILES,% of control remaining
1,O=C(O)c1ccc(-c2ccc(/C=C/c3[nH]c(=O)[nH]c(=O)c3[N+](=O)[O-])o2)cc1 [CBK268055],100.862
2,CC(=O)Nc1cccc(C(=O)OCC(=O)c2cccs2)c1 [CBK306040],50.0936
3,CNC(=O)C1(Cc2ccc(-c3ccccc3)cc2)CCN(C(=O)c2ccccc2)CC1 [CBK285761],90.081
4,CCCc1cc(C(=O)N(C)CCOc2ccccc2)[nH]n1 [CBK283162],117.793
5,Cc1ccc(C(N)=O)c(OCC(=O)N2c3ccccc3CCC2C)c1 (stereo not shown) [CBK295633],107.403
6,COc1ccccc1Nc1nc(N)nc(CSCCO)n1 [CBK266679],115.27
7,Cc1cc(Br)c(NCC(=O)N/N=C/c2ccc(O)cc2)c(Br)c1 [CBK263506],71.0616
8,COc1ccc(-c2n[nH]c(=S)n2CC(=O)Nc2nc(-c3ccc(C)cc3C)cs2)cc1 [CBK295316],90.491
9,O=C(C1CC1)N1C2CCC1Cn1c(nc3ccccc3c1=O)C2 (stereo not shown) [CBK284451],99.239
10,CNC(=O)C1(Cc2ccccc2-c2cccs2)CCN(C(=O)c2ccccc2OC)CC1 [CBK285685],97.4743
11,Cc1nc2c(c(=O)[nH]1)CN(Cc1ccc(Cl)c(Cl)c1)CC2 [CBK283949],89.6919
12,Cc1cc(NC(=O)c2cncnc2)c2ccccc2n1 [CBK122734],60.7275
13,CCCc1c(O)n[nH]c1Cc1ccc(Cl)cc1 [CBK078564],94.6996
14,CCN(C(=O)c1cnc2n(c1=O)CCS2)c1ccccc1 [CBK287384],76.3436
15,COC[C@@H]1CCCN1S(=O)(=O)c1cccs1 [CBK045239],79.151
16,CCCC/C=C/c1cn2ccnc2c(Nc2ccc(OC)nc2)n1 [CBK038089],97.2841
17,Cc1nn(-c2ccccc2)c2sncc12 [CBK006869],78.349
18,OCC1CCN(Cc2cnn(C3CCCCC3)c2)C1 (stereo not shown) [CBK283086],82.3527
19,O=C(Cn1ccc2ccnc(-c3cccs3)c21)N1CCNCC1 [CBK284733],106.381
20,Cc1nc2c(C(=O)NCCOCCO)cnn2c(C)c1Cc1ccc(F)c(Cl)c1 [CBK167457],61.9575
21,Cn1cc(C(=O)N2CCCC3(C/C=C/COc4ccccc4C(=O)NCCNC3=O)C2)cn1 (stereo not shown) [CBK292102],120.673

row,SMILES,% of control remaining
1,COc1ccc(N2CCN(/C(=N\S(=O)(=O)c3ccc(C)cc3)Nc3nc(C)cc(C)n3)CC2)cc1 [CBK266564],114.795
2,Cn1nc(C2CC2)cc1C(=O)NCCN1CCc2ccccc21 [CBK282138],76.6187
3,Cc1nc(=O)c(-c2ccccc2)c(C)n1CCCCCC(=O)O [CBK287060],81.81
4,O=C(Cn1cccc(C(=O)NC2CCCCC2)c1=O)NCC1(c2ccccc2Cl)CC1 [CBK286054],91.2602
5,Cc1cc(C)nc(NS(=O)(=O)c2ccc(OC(F)(F)F)cc2)c1 [CBK044711],119.42
6,Cc1ccc(NC(=O)c2ccccc2)s1 [CBK086724],92.4153
7,O=C(c1cccc(C(=O)N(Cc2ccccc2)c2ccccn2)c1)N(Cc1ccccc1)c1ccccn1 [CBK091794],112.689
8,c1ccc(Nc2cncc(N3CCNCC3)n2)cc1 [CBK013389],81.2693
9,CCC(CC)C(=O)Nc1nc(OC)cnc1-c1ccc(OCOC)cc1 [CBK145207],104.494
10,O=C(O)/C=C\C(=O)Nc1cccc(NC(=O)c2cccs2)c1 [CBK263952],103.755
11,O=C(Nc1ccc(Cc2ccncc2)cc1)c1cc([N+](=O)[O-])n[nH]1 [CBK269157],89.569
12,CCn1c2cc(C)oc2c2cnn(CC(=O)N(C)C)c(=O)c21 [CBK284224],84.4029
13,Cc1nc(-c2ccccc2)sc1CNC(=O)C(C)c1ccc([N+](=O)[O-])cc1 (stereo not shown) [CBK092364],28.1232
14,Cn1cccc1CN1C[C@H]2CC[C@]3(NC(=O)c4ccccc4N3)[C@H]2C1 [CBK284443],100.449
15,CCC(=O)NCc1ccc(-c2nc3ncccc3o2)cc1 [CBK270220],74.9896
16,COc1ccc2c(c1)Cc1sc(NC(C)=O)nc1-2 [CBK287876],98.0006
17,Cc1nc(-c2cc(Cl)c(Cl)s2)cs1 [CBK009801],67.9978
18,CCCC(SCC)C(N)=O (stereo not shown) [CBK020895],66.105
19,CCC(CO)Nc1cncc(-c2cccc(C(F)(F)F)c2)n1 (stereo not shown) [CBK065783],72.7937
20,Cc1c(Cl)c(C(=O)N[C@@H]2CCN(Cc3ccccn3)C[C@H]2O)nn1C [CBK306676],61.6755
21,O=C(CCS(=O)(=O)c1ccccc1)Nc1cncc(OC2CCNCC2)n1 [CBK028438T],87.2461

row,SMILES,% of control remaining
1,Cc1ccc2[nH]cc(CCNC(=O)c3cccc(NC(=O)c4ccccc4)c3)c2c1 [CBK269235],92.8019
2,O=C(/C=C\c1ccco1)Oc1ccc(/C=N\NC(=O)c2cncc(Br)c2)cc1 [CBK261385],105.638
3,CCn1cc(-c2cncn2CCCN2CCCCC2)cn1 [CBK281767],73.4223
4,Cc1nn([C@H]2C[C@@H](O)[C@@H](CO)O2)c(=O)[nH]c1=O [CBK201185],119.165
5,CCC(Oc1ccccc1F)C(=O)Nc1cc(C)on1 (stereo not shown) [CBK305558],81.4804
6,Cc1ccc(-c2c(C(=O)NNC(=S)NCC3CCCO3)csc2C)cc1 (stereo not shown) [CBK267062],92.0374
7,COCCN(Cc1cnn(C)c1)C(=O)c1cc(=O)c2cccc(F)c2[nH]1 [CBK306651],64.2806
8,c1ccc(OCCN2CCCN(c3nccc(OCCN4CCOCC4)n3)CC2)cc1 [CBK083940],63.0255
9,O=C(c1cc(F)c(F)cc1F)N1CCC2(CCCN(Cc3ccc4ccccc4c3)C2)C1 (stereo not shown) [CBK131998],71.3189
10,O=C(CCOc1ccccc1)Nc1c(F)cc(F)cc1OC1CCNCC1 [CBK045897T],67.6741
11,COC(=O)N1CCCCC1C(=O)NCCc1nc(C)cc(C(F)(F)F)n1 (stereo not shown) [CBK306752],54.0279
12,c1cnc(N2CCCC2)c(OCc2ccsc2)n1 [CBK115664],94.0767
13,CC(C)OCC1CN(c2cc(CO)c(F)cn2)CCO1 (stereo not shown) [CBK304755],81.926
14,COc1cc(C2N(Cc3ccccc3)CCN2Cc2ccccc2)ccc1OC(C)=O [CBK261349],104.24
15,Cc1ccc(C2=NO[C@@](CC(=O)O)(C(=O)Nc3ccc4c(c3)OCCO4)C2)cc1 [CBK286653],67.2785
16,Cc1nccn1CC1CCCN(Cc2ccnc3ccccc23)C1 (stereo not shown) [CBK281966],118.686
17,CC1CCCN(C(=O)CCn2c(-c3ccncc3)cc3cccnc32)C1 (stereo not shown) [CBK282152],104.206
18,CC(C)Cc1cc(CNS(=O)(=O)Cc2ccccc2F)on1 [CBK281505],64.627
19,O=C1Oc2nc3ccccc3cc2CN1C1CC1 [CBK282870],0.4218
20,Cc1nn(-c2ccccc2)c(Cl)c1CN1C(=O)NC2(CCCCC2)C1=O [CBK306043],81.2134
21,Cc1cccnc1NC(=O)c1cc(O)nc2ccccc12 [CBK300499],121.285

row,SMILES,% of control remaining
1,O=C(NC1CCCCC1)N[C@H]1CO[C@H]2[C@@H]1OC[C@@H]2Nc1nccc(C2CCCC2)n1 [CBK289531],103.532
2,Clc1ccc(Cl)c(-c2nc3ccccc3o2)n1 [CBK095353],84.2511
3,O=C(C1C2CCCCC21)N1CCC(Oc2cccc(F)c2)CC1 (stereo not shown) [CBK282216],98.5071
4,CCCCc1cc(=O)[nH]c(NCc2ccc(C(F)(F)F)cc2)n1 [CBK003946],89.1202
5,COc1ccccc1NC(=O)CN(c1ccc(C)cc1)S(=O)(=O)c1ccc(F)cc1 [CBK262718],95.8539
6,COc1cccc(-n2nnc3c(SCC(N)=O)ncnc32)c1 [CBK287543],55.8777
7,Cc1ccc(OCC(=O)NCC(c2cccs2)N2CCOCC2)cc1C (stereo not shown) [CBK306143],74.9154
8,CC1Cc2cc(C(=O)N3CCCCC3CN(C)C)ccc2O1 (stereo not shown) [CBK282193],100.866
9,O=C(CN1CCCCC1)Nc1ccc(NC(=O)CN2CCCCC2)c(Cl)c1 [CBK264173],112.808
10,CCc1nnc(SCC(=O)Nc2ccc(CN3CCOCC3)cc2)[nH]1 [CBK306097],60.0994
11,Cc1nnnn1-c1cc(NC(=O)NCCN2CCOCC2)ccc1F [CBK306246],37.4665
12,CCN1C(=O)CC2(C1=O)C(=O)N(CCCN(C)S(C)(=O)=O)c1ccccc12 (stereo not shown) [CBK075519],119.47
13,COc1ccc(Nc2cc(-c3ccc(CNC(=O)OC(C)(C)C)cc3)ncn2)c(OC)c1 [CBK090757],88.612
14,COc1ccc(NC(=O)NC(=O)c2ccc(Cl)cc2)c(OC)c1 [CBK269462],106.053
15,CCOC(=O)Cc1cc(O)nc(NC(=N)Nc2ccc(C)cc2C)n1 [CBK264986],103.103
16,N#Cc1ccc(C(=O)NCC2(N3CCOCC3)CCSC2)cc1 (stereo not shown) [CBK305602],29.9797
17,COc1ccc(Cl)cc1NC(=O)C1CCCN1S(=O)(=O)c1ccc(F)cc1 (stereo not shown) [CBK069866],94.8243
18,CN1CCN(NC(=O)COc2ccc(-c3ccccc3)cc2)CC1 [CBK268117],101.665
19,CCOC(=O)c1cc(C(C)C)sc1NC(=O)C1C2C=CC(C2)C1C(=O)O (stereo not shown) [CBK265417],109.704
